Out of some 130,000 compounds screened, about 1,900 (1.5%) were called active. Inconclusive results, whose numbers are uncertain, are shown with a selection of clear calls. Calls follow the shape of the dose curve; as a rule, active = well fitted cell-killing curve with a large enough effect; inconclusive = small, poorly fitted or top-dose-only effect; inactive = no such curve, though single readings can be large or run the other way. Potencies beside an inconclusive call are fits to weak or partial responses and may not hold up.
Experiment: qHTS Screen for Compounds that Selectively Target Cancer Cells with p53 Mutations: Cytotoxicity of p53ts Cells at the Nonpermissive Temperature; also: nearly all actives have a fitted effect of over 55% in size
Details: H1299-p53A138V viability at 39C, ATP luminescence, 24 h; series mostly up to 46.1 µM
For `CCS(=O)(=O)c1ncc(Cl)c(C(=O)Nc2c(C(=O)Nc3cccc(C)c3)oc3ccccc23)n1`, the Potency was active: 20 µM. With `COc1ccccc1N1CCN(C(CNC(=O)C(=O)NCc2ccc(F)cc2)c2cccnc2)CC1` (centres undefined) the Potency was inconclusive: 31.6 µM [cytotoxic, single point]. For `Cc1ccc(NC(=O)N2CCN(c3ccc(Cl)c(Cl)c3)CC2)cc1`, the Potency was inconclusive: 10 µM [cytotoxic, partial curve]. In the case of `O=C(Oc1ccc2ccccc2c1Cl)N1CCCCCC1`, the Potency is reported as inconclusive: 11.2 µM [cytotoxic, partial curve]. In the case of `O=S(=O)(c1ccccc1)N1CCC2(CCN(c3cccc(-c4ccccc4)c3)CC2)CC1`, the Potency is reported as “inactive”. In the case of `Cc1ccc(CCNC(=O)c2cc3n(n2)CCCN(Cc2ccc(C)cc2)C3=O)cc1`, the Potency is reported as “inactive”. With `Cc1ccc2c(c1)-c1onc(C(=O)N3CCN(c4cc(Cl)ccc4C)CC3)c1CO2` the Potency was inconclusive: 5.62 µM [cytotoxic, single point]. For `O=C(Nc1cc(N2CCOCC2)ncn1)NC1(C(F)(F)F)Oc2ccc(Cl)cc2O1` (centres undefined), the Potency was inconclusive: 12.6 µM [cytotoxic, single point]. For `O=C(Nc1ccc(Cl)cn1)c1cc2ccccc2o1`, the Potency was inconclusive: 12.6 µM [cytotoxic, single point]. With `Cc1ccc(NC(=O)c2cc(S(=O)(=O)NC3CCCCC3)ccc2F)cc1Cl` the Potency was inconclusive: 2 µM [cytotoxic, full curve]. With `O=C(Cc1ccc2cccnc2c1)c1ccc(O)cc1O` the Potency was inconclusive: 15.8 µM [cytotoxic, partial curve]. For `Cc1nn(S(=O)(=O)c2ccc(C(C)(C)C)cc2)c(C)c1S(=O)(=O)N1CCC(C)CC1`, the Potency was inconclusive: 0.01 µM [cytotoxic, full curve, poor fit]. In the case of `COc1ccc(-c2nc3cnc(N4CCNCC4)nc3n(Cc3cccs3)c2=O)cc1`, the Potency is reported as inconclusive: 31.6 µM [cytotoxic, single point]. In the case of `COc1ccc(S(=O)(=O)N(CC(=O)Nc2cc(Cl)ccc2C)Cc2ccccc2)cc1OC`, the Potency is reported as “inactive”. In the case of `CC(C)=CCc1c(O)cc2occ(-c3ccc4c(c3)OCO4)c(=O)c2c1O`, the Potency is reported as inconclusive: 25.1 µM [cytotoxic, single point]. With `O=C(CSc1nc2ccccc2[nH]1)NCc1ccc2c(c1)OCO2` the Potency was “inactive”. In the case of `CCS(=O)(=O)c1ncc(Cl)c(C(=O)Nc2ccccc2)n1`, the Potency is reported as active: 3.98 µM. For `Cc1ccc(N=C2NC(=O)CC(C(=O)Nc3cc(C(F)(F)F)ccc3Cl)S2)cc1` (centres undefined), the Potency was inconclusive: 12.6 µM [cytotoxic, single point]. For `O=C(Nn1cnnc1)c1cc(-c2ccccn2)nc2ccccc12`, the Potency was “inactive”. In the case of `Cc1ccc(N(CC(=O)Nc2cc(C)ccc2C)S(=O)(=O)c2c(C)noc2C)cc1`, the Potency is reported as “inactive”. For `Cc1ccc(NS(=O)(=O)c2cc(-c3cnc(C4CC4)o3)ccc2C)cc1Cl`, the Potency was inconclusive: 12.6 µM [cytotoxic, partial curve]. With `Nc1c(C(=O)Nc2ccccc2F)sc2nc3c(cc12)CCCCCC3` the Potency was inconclusive: 25.1 µM [cytotoxic, single point]. In the case of `Cc1ccc(C(=O)COC(=O)c2cccc(NC(=O)c3ccc(Cl)cc3Cl)c2)cc1`, the Potency is reported as inconclusive: 12.6 µM [cytotoxic, partial curve]. With `CCN(CC)CCCNC(=O)c1nn(C)c2c1CSc1ccccc1-2` the Potency was active: 20 µM. In the case of `NC(=O)c1cc2ccc(O)cc2oc1=Nc1ccccc1`, the Potency is reported as inconclusive: 15.8 µM [cytotoxic, single point]. In the case of `Cc1cc(OCC(O)CN2CCN(c3cccc(Cl)c3)CC2)ccc1Cl` (centres undefined), the Potency is reported as inconclusive: 20 µM [cytotoxic, single point]. With `Cc1cccc(Cn2cc(C(=O)Nc3cc(F)ccc3F)ccc2=O)c1` the Potency was inconclusive: 3.98 µM [cytotoxic, partial curve, poor fit]. For `CC1CCN(c2c(NCc3ccc(C(=O)NCc4cccnc4)cc3)c(=O)c2=O)CC1`, the Potency was “inactive”. With `CC(=O)c1ccccc1OCC(O)Cn1c(CO)nc2ccccc21` (centres undefined) the Potency was inconclusive: 17.8 µM [cytotoxic, partial curve, poor fit]. With `O=C(OCC1CO1)C1CCCCC1C(=O)OCC1CO1` (centres undefined) the Potency was active: 31.6 µM. With `Cc1cccc(CN2C(=O)c3ccccc3Sc3ccc(C(=O)NCCCN4CCOCC4)cc32)c1` the Potency was inconclusive: 20 µM [cytotoxic, partial curve]. For `Cc1ccc(Cl)cc1N1CCN(C(=O)CCc2nnc3n(C)c(=O)c4ccccc4n23)CC1`, the Potency was inconclusive: 12.6 µM [cytotoxic, partial curve]. For `COc1ccc(CCN2C(=O)CN(C3CCCCCC3)C(=O)C2c2ccc(Cl)cc2)cc1OC` (centres undefined), the Potency was inconclusive: 6.31 µM [cytotoxic, full curve, poor fit]. With `c1ccc(-c2ccccc2OCCCCN2CCCCC2)cc1` the Potency was inconclusive: 10 µM [cytotoxic, single point]. In the case of `COc1ccc(C(C)=O)c(O)c1`, the Potency is reported as “inactive”. For `CCc1cccc(C)c1Nc1c(-c2ccc(N(C)C)cc2)nc2cnccn12`, the Potency was inconclusive: 2.51 µM [cytotoxic, partial curve]. With `CCCOc1ccc(CN2C(=O)C(=O)c3cccc(C)c32)cc1` the Potency was active: 15.8 µM. For `CCc1ccc(C(=O)c2cn(CC(=O)Nc3cc(OC)cc(OC)c3)c3ccc(CC)cc3c2=O)cc1`, the Potency was active: 12.6 µM. In the case of `CCCCCCNC(=O)CC(c1ccccc1)c1cc(Br)ccc1O` (centres undefined), the Potency is reported as inconclusive: 15.8 µM [cytotoxic, single point]. With `COc1cc(Br)cc2cc(S(=O)(=O)c3ccccc3)c(=O)oc12` the Potency was inconclusive: 12.6 µM [cytotoxic, single point]. With `CC1CCc2noc(NC(=O)c3ccc([N+](=O)[O-])cc3)c2C1` (centres undefined) the Potency was “inactive”. In the case of `COc1ccc(OCC(=O)Nc2cc(-c3nc4ccccc4o3)ccc2Cl)cc1`, the Potency is reported as “inactive”. For `CCOc1ccc(C(=O)Nc2ccc(C(=O)OCc3cc(=O)n4c(C)csc4n3)cc2)cc1`, the Potency was inconclusive: 31.6 µM [cytotoxic, single point]. For `Cc1ccc(CNC(=O)Cn2ccn(-c3ccc(F)c(F)c3)c(=O)c2=O)cc1`, the Potency was inconclusive: 31.6 µM [cytotoxic, single point].

Source: PubChem BioAssay AID902 (National Center for Advancing Translational Sciences (NCATS), 2007)
Potency is read from the fitted curve at half-maximal effect; tags tell the direction and shape of the fitted curve.
